The list shows a part of the results. Single values are uncertain, as repeats are few or missing.
Key:
Assay in all cases: cell count relative to DMSO control; melanoma cells; higher = more viable cells
Settings in all cases: library dose: standard library concentration; 72 h
G361 = system: G361
IPC-298 = system: IPC-298
IST-MEL1 = system: IST-MEL1
LB2518-MEL = system: LB2518-MEL
LOXIMVI = system: LOXIMVI
MEL-HO = system: MEL-HO
MZ2-MEL = system: MZ2-MEL
MeWo = system: MeWo
RPMI7951 = system: RPMI7951
RVH-421 = system: RVH-421
SkMel28 = system: SkMel28
SkMel2 = system: SkMel2
SkMel30 = system: SkMel30
SkMel5 = system: SkMel5
UACC257 = system: UACC257
UACC62 = system: UACC62
WM115 = system: WM115
WM1716 = system: WM1716
WM1745 = system: WM1745
WM3526 = system: WM3526
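Further: cells treated in 1,536-well plates, then fixed and DAPI-stained, with nuclei counted from automated high-throughput microscope images.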

Compound	cell count (G361) [%]	cell count (IPC-298) [%]	cell count (IST-MEL1) [%]	cell count (LB2518-MEL) [%]	cell count (LOXIMVI) [%]	cell count (MEL-HO) [%]	cell count (MZ2-MEL) [%]	cell count (MeWo) [%]	cell count (RPMI7951) [%]	cell count (RVH-421) [%]	cell count (SkMel28) [%]	cell count (SkMel2) [%]	cell count (SkMel30) [%]	cell count (SkMel5) [%]	cell count (UACC257) [%]	cell count (UACC62) [%]	cell count (WM115) [%]	cell count (WM1716) [%]	cell count (WM1745) [%]	cell count (WM3526) [%]
C[C@]1(O)C[C@@H](c2nc(-c3ccc4ccc(-c5ccccc5)nc4c3)c3c(N)nccn32)C1 + CO[C@H]1C[C@@H]2CC[C@@H](C)[C@@](O)(O2)C(=O)C(=O)N2CCCC[C@H]2C(=O)O[C@H]([C@H](C)C[C@@H]2CC[C@@H](OCCO)[C@H](OC)C2)CC(=O)[C@H](C)/C=C(\C)[C@@H](O)[C@@H](OC)C(=O)[C@H](C)C[C@H](C)/C=C/C=C/C=C/1C [everolimus] (first compound 2 µM, partner dose 0.1 µM)	41.8	49.5	65.6	43.5	74.4	60.5	52	48.4	51.3	104	37.6	36	42.7	36.4	72.7	55.3	56.9	66.9	57.8	42.3
COc1cc([C@@H]2c3cc4c(cc3[C@@H](O[C@@H]3O[C@@H]5CO[C@@H](C)O[C@H]5[C@H](O)[C@H]3O)[C@H]3COC(=O)[C@H]23)OCO4)cc(OC)c1O [etoposide] + O=C(O)c1ccc(-c2c[nH]c3ncc(-c4ccccc4)cc23)cc1C1CCCC1 [GSK650394] (first compound 0.1 µM, partner dose 0.8 µM)	53.2	55.7	65.2	82.8	118	76.9	76	80	106	101	64.7	63.1	85.1	77.9	85.2	84.7	83.5	73	92.8	104
Cn1cnc2c(F)c(Nc3ccc(Br)cc3Cl)c(C(=O)NOCCO)cc21 [selumetinib] + CCCS(=O)(=O)Nc1ccc(F)c(C(=O)c2c[nH]c3ncc(Cl)cc23)c1F [PLX4720] (first compound 0.075 µM, partner dose 0.4 µM)	49.6	55.3	88.3	58.2	104	64.7	85.7	94.1	162	89.1	35.5	79.2	80	93	102	61.3	80.5	67.1	74.1	47.4
C[C@]1(O)C[C@@H](c2nc(-c3ccc4ccc(-c5ccccc5)nc4c3)c3c(N)nccn32)C1 + CN1CCN(c2ccc3nc(-c4c(N)c5c(F)cccc5[nH]c4=O)[nH]c3c2)CC1 [Dovitinib] (first compound 2 µM, partner dose 0.5 µM)	50.9	61.5	69.5	50.2	72.1	78	50.4	41.7	80.9	78.9	57.6	39.9	94.7	57.3	76.6	63.1	80.4	65.3	38.2	75.2
Cn1cnc2c(F)c(Nc3ccc(Br)cc3Cl)c(C(=O)NOCCO)cc21 [selumetinib] + Nc1nc(F)nc2c1ncn2[C@@H]1O[C@H](CO)[C@@H](O)[C@@H]1O [fludarabine] (first compound 0.075 µM, partner dose 1 µM)	80	53	78.1	53.2	119	73.3	87.9	79.6	52.7	96.5	0.323	0.68	11	33.5	25.4	49.2	92	94.6	72.4	21.8
C[C@]1(O)C[C@@H](c2nc(-c3ccc4ccc(-c5ccccc5)nc4c3)c3c(N)nccn32)C1 + CC(C)(C)c1cnc(CSc2cnc(NC(=O)C3CCNCC3)s2)o1 [SNS-032] (first compound 2 µM, partner dose 0.05 µM)	79.1	97	79.4	75.1	46.4	98.9	88.5	64.7	36.1	96.7	56.4	58.7	82.8	55.6	78.8	49.7	76.5	74.5	42.4	82.4
CCN(CC)CCNC(=O)c1c(C)[nH]c(/C=C2\C(=O)Nc3ccc(F)cc32)c1C [sunitinib] + NC1(c2ccc(-c3nc4ccn5c(=O)[nH]nc5c4cc3-c3ccccc3)cc2)CCC1 [MK2206] (first compound 2 µM, partner dose 2 µM)	67.8	59.6	76.1	45.6	98.5	63.9	85.6	52.7	75	63.3	27.3	44.6	52	39.7	95	26.7	38.6	73.2	40.8	45
COc1cc([C@@H]2c3cc4c(cc3[C@@H](O[C@@H]3O[C@@H]5CO[C@@H](C)O[C@H]5[C@H](O)[C@H]3O)[C@H]3COC(=O)[C@H]23)OCO4)cc(OC)c1O [etoposide] + CCCCCCCCCCCCCCCCCCOP(=O)([O-])OC1CC[N+](C)(C)CC1 [Perifosine] (first compound 0.1 µM, partner dose 2 µM)	87.7	90	89.3	83.7	73.8	103	79.5	85.4	31.8	72.8	80.4	68.5	85	96.2	92.3	62.3	82.5	72.6	105	94.5
Cn1cnc2c(F)c(Nc3ccc(Br)cc3Cl)c(C(=O)NOCCO)cc21 [selumetinib] + COCC[n+]1c2c(n(Cc3cnccn3)c1C)C(=O)c1ccccc1C2=O [YM155] (first compound 0.075 µM, partner dose 0.002 µM)	77.2	37.8	36.5	27.4	69.2	80.6	51.3	59.6	41.7	63.8	58.3	39.3	62.9	49	41.6	65.4	67.9	62.2	105	39.1
COc1cc([C@@H]2c3cc4c(cc3[C@@H](O[C@@H]3O[C@@H]5CO[C@@H](C)O[C@H]5[C@H](O)[C@H]3O)[C@H]3COC(=O)[C@H]23)OCO4)cc(OC)c1O [etoposide] + C[C@]1(O)C[C@@H](c2nc(-c3ccc4ccc(-c5ccccc5)nc4c3)c3c(N)nccn32)C1 [OSI906] (first compound 0.1 µM, partner dose 2 µM)	86	64.7	94.9	82.6	67.3	94.3	68.1	69.7	66.5	77	73.5	68.3	93.3	70.3	80.9	57.9	70.5	60.1	68.2	67.2
CCN(CC)CCNC(=O)c1c(C)[nH]c(/C=C2\C(=O)Nc3ccc(F)cc32)c1C [sunitinib] + Cn1cncc1[C@@](N)(c1ccc(Cl)cc1)c1ccc2c(c1)c(-c1cccc(Cl)c1)cc(=O)n2C [tipifarnib] (first compound 2 µM, partner dose 0.05 µM)	50.7	77.4	73.3	54.9	82.1	77.4	87.3	45.9	54.9	65.8	44	54.7	50.7	34	90.1	39.4	42	71.3	36.5	47.6
C[C@]1(O)C[C@@H](c2nc(-c3ccc4ccc(-c5ccccc5)nc4c3)c3c(N)nccn32)C1 + CC(C)C[C@H](NC(=O)[C@H](Cc1ccccc1)NC(=O)c1cnccn1)B(O)O [Bortezomib] (first compound 2 µM, partner dose 0.005 µM)	1.5	9.4	10.1	3.85	29.6	34.5	2.13	11	4.12	14.4	29.9	49.1	37	23.5	73.7	47.8	23.6	14.1	17.9	26.4
CCN(CC)CCNC(=O)c1c(C)[nH]c(/C=C2\C(=O)Nc3ccc(F)cc32)c1C [sunitinib] + CNC(=O)c1cc(Oc2ccc(NC(=O)Nc3ccc(Cl)c(C(F)(F)F)c3)cc2)ccn1 [sorafenib] (first compound 2 µM, partner dose 2 µM)	89.1	54.2	102	57	171	105	75.8	46.3	66.3	106	66.3	24.8	65	64.9	80.8	41.7	73.6	129	57.8	57.7
Cn1cnc2c(F)c(Nc3ccc(Br)cc3Cl)c(C(=O)NOCCO)cc21 [selumetinib] + NCC(=O)Nc1ccc(-n2nc(C(F)(F)F)cc2-c2ccc3c(ccc4ccccc43)c2)cc1 [OSU03012] (first compound 0.075 µM, partner dose 5 µM)	86.2	59	70.9	42.9	84.5	88	85.3	76.1	115	81.9	30.7	36.5	42.5	67.9	82.8	60.4	60.3	69.8	112	51.7
Cn1cnc2c(F)c(Nc3ccc(Br)cc3Cl)c(C(=O)NOCCO)cc21 [selumetinib] + C[C@]1(O)C[C@@H](c2nc(-c3ccc4ccc(-c5ccccc5)nc4c3)c3c(N)nccn32)C1 [OSI906] (first compound 0.075 µM, partner dose 2 µM)	55.8	48.1	74.8	24.5	99.8	69.3	43.6	56.7	86.9	66.9	32.8	15.3	40.9	73.2	87.1	51.2	99.7	79.8	71.1	29.9

Source: the supplement of paper PMC4604168 (melanoma cell lines)
